According to PubChem BioAssay AID995 (National Center for Advancing Translational Sciences (NCATS), 2007):
Out of some 72,000 compounds screened, about 710 (0.99%) were called active. This list was built around the results that the source calls inconclusive (neither active nor inactive); the mix of calls is not that of the screen. The call rests on the fitted dose curve; in most records, active means well fitted inhibition curve with a large enough effect; inconclusive means small, poorly fitted or top-dose-only effect; inactive means no such curve, though single readings can be large or run the other way. Potencies of inconclusive entries are left out as doubtful fits.

Experiment: qHTS Assay for Inhibitors of the ERK Signaling Pathway using a Homogeneous Screening Assay; further: nearly all actives have a fitted effect of over 55% in size
Details: HEK293-V1b, vasopressin-stimulated pERK AlphaScreen; activity, negative = inhibition: at 57.5 µM (top of the series) unless noted
How it was run: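 HEK293 cells stably expressing V1b receptor, preincubated 30 min at 37 °C with compound, then stimulated 5 min with 25 nM vasopressin. Phospho-ERK by AlphaScreen SureFire after 5 h RT; normalized to DMSO and vasopressin; AC50 by Hill fit.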
On the % scale 0 is the no-effect control and ±100 the full control effect; potency means the concentration at half of the fitted maximal effect; tags describe the fitted curve by direction and shape.

**Q.** With O=C1c2ccccc2C(=O)N1CCSc1nnc(-c2ccco2)n1Cc1ccccc1 as the molecule, how does the Potency read?
**A.** inconclusive [inhibitor, single point]

**Q.** Which Potency does the source give for COC(=O)c1ccc(NC(=O)CN2CCN(c3cccc(Cl)c3)CC2)cc1 here?
**A.** inconclusive [inhibitor, partial curve]

**Q.** For O=C1CC(c2cccs2)Cc2nc(NCC3CCCO3)ncc21 (centres undefined), which Potency is on record?
**A.** active: 20 µM

**Q.** Which Potency does the source give for COC(=O)c1c(NC(=O)Cc2cccs2)sc(C(=O)N2CCCCC2)c1C here?
**A.** inconclusive [inhibitor, partial curve]

**Q.** For O=c1c(-c2cc(F)cc(F)c2)nc2cnc(N3CCOCC3)nc2n1Cc1ccc(F)cc1, which “activity, negative = inhibition” value is on record?
**A.** inactive: 0.988%

**Q.** With CCc1nnc(NC(=O)c2ccc(COc3ccccc3)o2)s1 as the molecule, how does the “activity, negative = inhibition” value read?
**A.** inactive: 12.9%

**Q.** Which Potency does the source give for COc1ccc(/C=N/n2cnnc2SCc2ccc(OC)cc2)cc1 here?
**A.** inconclusive [inhibitor, single point]

**Q.** Which Potency does the source give for Cc1sc(NC(=O)COc2cccc(-n3cnnn3)c2)c(C#N)c1C here?
**A.** inconclusive [inhibitor, partial curve, poor fit]

**Q.** For Cc1ccc(Nc2nc(N)nc(CN3CCN(Cc4ccc5c(c4)OCO5)CC3)n2)cc1Cl, which Potency is on record?
**A.** inconclusive [inhibitor, single point]

**Q.** Which Potency does the source give for CCNc1ncc2nc(-c3cccs3)c(=O)n(CCc3ccccc3)c2n1 here?
**A.** inconclusive [inhibitor, partial curve]

**Q.** With CCn1c(SCC(N)=O)nnc1-c1cc2c(C)nn(-c3ccccc3)c2s1 as the molecule, how does the Potency read?
**A.** inconclusive [inhibitor, partial curve]

**Q.** For COc1cccc(-c2ccc3ncnc(NCc4ccccc4)c3c2)c1, which Potency is on record?
**A.** inconclusive [inhibitor, single point]

**Q.** For O=C(NCc1ccco1)Nc1ccc2snnc2c1, which Potency is on record?
**A.** inconclusive [inhibitor, single point]

**Q.** With Cc1cc(C)nc(N2CCN(c3nnnn3-c3ccccc3)CC2)n1 as the molecule, how does the “activity, negative = inhibition” value read?
**A.** inactive: 11.3%

**Q.** For Cc1c(C)n(C(=O)CN2CCN(c3ccccn3)CC2)c2ccccc12, which Potency is on record?
**A.** inconclusive [inhibitor, single point]

**Q.** With CC(C)c1ccc2oc(-c3ccc(NC(=O)c4ncn[nH]4)cc3)nc2c1 as the molecule, how does the “activity, negative = inhibition” value read?
**A.** inactive: 10%

**Q.** With COC(=O)c1cc2c([nH]c3ccccc32)c(C)n1 as the molecule, how does the Potency read?
**A.** active: 31.6 µM

**Q.** Which “activity, negative = inhibition” value does the source give for CCC(COC(=O)Nc1cccc(C)c1)NC(=O)OCC(C)C (centres undefined) here?
**A.** inactive: 0.975%

**Q.** With O=C(Nc1ccon1)c1cc(-c2ccccc2)nc2ccccc12 as the molecule, how does the Potency read?
**A.** inconclusive [inhibitor, partial curve]

**Q.** With Cc1ccc(CNC(=O)c2sccc2-n2cccc2)cc1 as the molecule, how does the Potency read?
**A.** inconclusive [inhibitor, single point]

**Q.** Which Potency does the source give for COc1ccc(-c2oc3cc(OC)c(OC(C)=O)c(OC)c3c(=O)c2OC)cc1OC(C)=O here?
**A.** inconclusive [inhibitor, partial curve, poor fit]

**Q.** With O=C(c1ccccc1)c1ccc(C(=O)N2CCN(c3ccc(F)cc3)CC2)o1 as the molecule, how does the Potency read?
**A.** inconclusive [inhibitor, partial curve]

**Q.** For Clc1ccc(-c2nc(-c3ccccn3)no2)cc1Cl, which Potency is on record?
**A.** inconclusive [inhibitor, partial curve]

**Q.** Which Potency does the source give for c1ccc2c(c1)nc(-c1ccncc1)n1nnnc21 here?
**A.** inconclusive [inhibitor, partial curve]

**Q.** For CCSC1=C(C#N)C(=O)n2c1cc1c2CCCC1, which Potency is on record?
**A.** inconclusive [inhibitor, single point]

**Q.** Which “activity, negative = inhibition” value does the source give for COc1ccc(-c2cc(C(F)(F)F)n3ncc(C(=O)NCC4CCCO4)c3n2)cc1 (centres undefined) here?
**A.** inactive: 1.65%

**Q.** Which Potency does the source give for N#CC1=C2SCN(c3ccccc3)CN2C(=O)CC1c1c(Cl)cccc1Cl (centres undefined) here?
**A.** inconclusive [inhibitor, partial curve]

**Q.** For COc1ccc(N2CSC3=C(C#N)C(c4cc(OC)c(OC)cc4OC)CC(=O)N3C2)c(OC)c1 (centres undefined), which “activity, negative = inhibition” value is on record?
**A.** inactive: 4.02%

**Q.** Which Potency does the source give for COC(=O)c1ccc(NC(=O)c2ccc(CN3CCOCC3)cc2)cc1 here?
**A.** inconclusive [inhibitor, partial curve]

**Q.** With O=c1c2[nH]c3ccccc3c2ncn1CCCn1ccnc1 as the molecule, how does the “activity, negative = inhibition” value read?
**A.** inactive: 3.53%

**Q.** Which Potency does the source give for O=C(COc1c(F)c(F)c(C(F)(F)F)c(F)c1F)Nc1ccc(N2CCOCC2)c(Cl)c1 here?
**A.** inconclusive [inhibitor, single point]

**Q.** For CCOC(=O)c1[nH]c(C)c(/C=N/O)c1C, which Potency is on record?
**A.** inconclusive [inhibitor, single point]

**Q.** With COc1ccc(CCC(=O)N2CCc3ccccc32)cc1 as the molecule, how does the Potency read?
**A.** inconclusive [inhibitor, single point]

**Q.** Which Potency does the source give for CC(C)Nc1nc(C#N)nc(NC(C)C)n1 here?
**A.** inconclusive [inhibitor, partial curve]

**Q.** Which Potency does the source give for CCCOc1cc(C)c(S(=O)(=O)N2CCN(C)CC2)cc1C here?
**A.** inconclusive [inhibitor, partial curve]

**Q.** For CCOC(=O)c1c(N)sc2c(NC(C)=O)cccc12, which Potency is on record?
**A.** inconclusive [inhibitor, partial curve]

**Q.** Which “activity, negative = inhibition” value does the source give for COc1ccc(C2/C(=C(\O)c3ccc(OC)c(Cl)c3)C(=O)C(=O)N2CCN(C)C)cc1 (centres undefined) here?
**A.** inactive: -12.4%

**Q.** Which Potency does the source give for Fc1ccc(Br)cc1C1C=C(c2cccnc2)Nc2ncnn21 (centres undefined) here?
**A.** inconclusive [inhibitor, partial curve]

**Q.** With CC1CCN(S(=O)(=O)c2cccc(C(=O)Nc3nccs3)c2)CC1 as the molecule, how does the Potency read?
**A.** inconclusive [inhibitor, single point]

**Q.** For Cc1cc(N2CCN(c3nc4ccccc4s3)CC2)n2ncnc2n1, which Potency is on record?
**A.** inconclusive [inhibitor, single point]

**Q.** With COc1ccccc1N1CCN(CC(O)COc2ccc(S(=O)(=O)N3CCOCC3)cc2)CC1 (centres undefined) as the molecule, how does the Potency read?
**A.** inconclusive [inhibitor, single point]

**Q.** Which Potency does the source give for C=CCN1C(=O)C(O)(CC(=O)c2ccc(OC)cc2OC)c2cc(Br)ccc21 (centres undefined) here?
**A.** inconclusive [inhibitor, partial curve]

**Q.** Which Potency does the source give for O=C(OCCN1C(=O)c2ccccc2C1=O)c1cc(S(=O)(=O)N2CCOCC2)ccc1F here?
**A.** inconclusive [inhibitor, single point]

**Q.** For O=C(c1ccccc1)c1ccc2n1CC[C@H]2C(=O)O, which Potency is on record?
**A.** inconclusive [inhibitor, single point]
